Hit rate of the full screen: of about 310,000 compounds, about 14,000 (4.5%) showed an effect of 50% or more. Effects have a minus sign here. The list shows a part of the results.
Target: human ether-à-go-go-related gene (hERG) potassium channel (human, UniProt Q12809)
Assay: primary screen, population patch clamp on CHO cells stably expressing hERG
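Note: peak tail current of the secondary pulse compared with the same well before compound.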

Sequence of human ether-à-go-go-related gene (hERG) potassium channel (Q12809 whole entry, looked up): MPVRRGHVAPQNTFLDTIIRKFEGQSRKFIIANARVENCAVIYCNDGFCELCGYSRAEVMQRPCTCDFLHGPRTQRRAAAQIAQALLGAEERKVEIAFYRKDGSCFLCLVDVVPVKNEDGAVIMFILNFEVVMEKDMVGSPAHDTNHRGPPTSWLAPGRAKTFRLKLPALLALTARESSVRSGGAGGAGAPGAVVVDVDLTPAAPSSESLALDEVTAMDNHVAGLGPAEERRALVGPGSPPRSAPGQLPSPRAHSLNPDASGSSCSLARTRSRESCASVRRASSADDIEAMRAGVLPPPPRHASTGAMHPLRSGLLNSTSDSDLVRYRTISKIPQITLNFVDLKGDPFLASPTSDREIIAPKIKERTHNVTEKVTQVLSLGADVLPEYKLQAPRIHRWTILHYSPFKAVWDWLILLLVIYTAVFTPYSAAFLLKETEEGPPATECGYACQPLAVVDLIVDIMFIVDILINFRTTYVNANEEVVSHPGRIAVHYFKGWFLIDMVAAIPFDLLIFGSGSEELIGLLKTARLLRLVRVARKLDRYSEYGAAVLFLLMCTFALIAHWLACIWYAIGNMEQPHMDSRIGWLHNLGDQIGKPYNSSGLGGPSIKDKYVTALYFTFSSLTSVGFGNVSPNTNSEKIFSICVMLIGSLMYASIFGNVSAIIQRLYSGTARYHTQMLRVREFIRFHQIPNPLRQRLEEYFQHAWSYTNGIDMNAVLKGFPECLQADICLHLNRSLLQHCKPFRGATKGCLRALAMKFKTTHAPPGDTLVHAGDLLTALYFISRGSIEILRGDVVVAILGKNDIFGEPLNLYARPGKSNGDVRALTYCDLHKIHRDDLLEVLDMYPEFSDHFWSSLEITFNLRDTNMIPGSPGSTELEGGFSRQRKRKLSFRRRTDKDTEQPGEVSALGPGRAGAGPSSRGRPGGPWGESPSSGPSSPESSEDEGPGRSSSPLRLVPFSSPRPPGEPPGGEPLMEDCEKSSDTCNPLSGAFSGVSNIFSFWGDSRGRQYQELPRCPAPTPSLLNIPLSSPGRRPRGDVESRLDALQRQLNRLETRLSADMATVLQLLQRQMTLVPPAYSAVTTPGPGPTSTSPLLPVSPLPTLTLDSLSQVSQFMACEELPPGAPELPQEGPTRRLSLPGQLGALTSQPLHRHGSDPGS

Compound | hERG current change (%, negative = inhibition) at 10uM [%]
COc1ccc(C(=O)N[C@H](C(=O)OCc2cc(=O)oc3cc(C)ccc23)C(C)C)cc1 | -44.3
CSc1cccc(NC(C)=O)c1 | 5.83
Cc1ccc(S(=O)(=O)NCCNc2ccc([N+](=O)[O-])cc2)cc1 | -22.8
Cc1[nH]nc2nc(SCC(=O)NCC3CCCO3)n(-c3ccc(Br)cc3)c(=N)c12 (stereo not drawn) | -26.4
COc1ccc2c(c1)C1OCCC1C(c1ccco1)N2 (stereo not drawn) | -12.5
COc1cc(C(=O)NCC(c2cccs2)N2CCOCC2)cc(OC)c1OC (stereo not drawn) | 11.5
COCCOC(=O)C1=C(C)Nc2ncnn2C1c1ccco1 (stereo not drawn) | 2.64
COc1ccc(OC)c(CN2CCN(C(=O)Cc3ccccc3)CC2)c1.O=C(O)C(=O)O | -4.63
Cc1cccc(CN2CCc3c(OCC(=O)NCc4ccco4)cccc3C2=O)c1 | -51.2
Cc1ccc(NC(=O)C(=O)NN=C2CCCC2)cc1C | 21.8
O=C(CN1C(=O)NC(c2ccccc2)(c2ccccc2)C1=O)N1CCN(c2ccccc2F)CC1 | -17.4
Cc1cc([N+](=O)[O-])ccc1NCc1cccc2ccccc12 | 18.9
COc1ccc2c(c1)c1c(n2C(C)=O)C(OC(C)=O)=NCC1 | -8.94
O=C(OC1CO[C@H]2O[C@@H]1[C@H](OC(=O)c1ccccc1)[C@H]2OC(=O)c1ccccc1)c1ccccc1 (stereo partly drawn) | 5.89
COCCn1c(SCC(=O)N2CCCc3ccccc32)nnc1-c1ccoc1C | -7.38
Cc1nc(NC(=S)NC(=O)c2ccccc2)sc1C(=O)N(C)C | -1.09
Cc1nnc(SCc2ccccc2)n1CC1CCCO1 (stereo not drawn) | 11.9
Cl.NC(c1ccccc1)c1cccnc1 (stereo not drawn) | 18.1
O=C(CN1C(=O)c2ccccc2C1=O)N(CCO)Cc1ccccc1 | 8.29
O=S(=O)(c1ccc(Cl)s1)N1CCCCC1 | -5.21
CCC(c1nnnn1CCc1ccccc1)N1CCN(C(=O)c2ccco2)CC1.Cl (stereo not drawn) | -28
Cn1c(SCC(=O)N2CCCC2)nc2cccnc21 | 16.9

Compound | hERG current change (%, negative = inhibition) at 10uM [%]
COc1ccccc1NC(=O)N1CCC(NC(=O)C(Cc2ccccc2F)NC(C)=O)CC1 (stereo not drawn) | 8.48
Cc1ccc(-c2sc(-c3ccccc3)nc2CC(=O)Nc2ccccc2F)cc1 | 6.09
CN1CCC(CNC(=O)Nc2ccccc2)(c2ccccc2)CC1 | -8.58
CCCCOn1c(C)c(C(=O)OCC)c2c3no[n+]([O-])c3ccc21 | 11.7
COc1cccc(OCCNc2cc(N3CCOCC3)ccc2[N+](=O)[O-])c1 | 4.18
COc1cccc2cc(-c3nnc(SCC(=O)NCc4ccccc4)n3C)oc12 | 9.04
CCn1c(N)nc2ccccc21 | 5.9
NS(=O)(=O)c1ccc(CCNc2cc(=O)n(Cc3ccc(F)cc3)c(=O)[nH]2)cc1 | -0.0138
O=C(CSc1nc(-c2ccccc2)c(-c2ccccc2)o1)N1CCOCC1 | -49.8
Cc1cc(C)n(Cc2ccc(C(=O)N/N=C/c3ccc(-c4ccc([N+](=O)[O-])cc4)o3)o2)n1 | -2.21
CC(C)NCC(O)COC1CCC(C(C)(C)C)CC1.Cl (stereo not drawn) | 8.06
O=C(COC(=O)c1ccc2c(c1)OCO2)Nc1ccccc1 | 14.4
Cc1ncc(CO)c2cc(-c3nnc(Nc4ccc5c(c4)OCO5)s3)c(=O)oc12 | 1.63
Cc1ncsc1C(=O)N1CCCC(CNS(=O)(=O)c2cccs2)C1 (stereo not drawn) | 24.5
COc1ccccc1CC(=O)NCc1csc(-c2cccs2)n1 | -7.19
CCN1CCCC1CNC(=O)c1ccc2c(c1)NC(=O)/C(=C\c1ccc(C)cc1)S2 (stereo not drawn) | -42.4
N#Cc1ccccc1S(=O)(=O)N1CCN(CC(=O)NCC2(N3CCOCC3)CCCCC2)CC1 | -27.3
CC1CCc2sc(C(=O)Nc3ccc(C(N)=O)cc3)cc2C1 (stereo not drawn) | 10.5
Cc1onc(-c2c(Cl)cccc2Cl)c1C(=O)Nc1ccc(Cl)cn1 | -10.2
O=[N+]([O-])c1cccc(NC(=S)NCCc2ccccc2)c1 | -40.3
Cc1ccc(C(=O)N(CN2CCCC2=O)c2ccc(F)cc2)cc1 | 0.181
O=C(N/N=C/c1ccccc1O)C(=O)Nc1ccccn1 | 19.8

Compound | hERG current change (%, negative = inhibition) at 10uM [%]
CCc1cc(=O)oc2cc(C)cc(OCC(=O)NCCCN3CCOCC3)c12 | -11.1
Cc1cc(SCC(=O)c2ccc(O)c(O)c2)nc2ccccc12 | 18.2
c1ccc2sc(-c3ccc4c(c3)OCO4)nc2c1 | -3.16
O=C(COc1ccc2c(-c3ccccc3)cc(=O)oc2c1)NCCN1CCOCC1 | -14
O=C(CC(=O)c1ccccc1)Nc1ccccc1 | 6.57
CC1(OC(=O)C2CCCC2)C(=O)C=C2C=C(c3ccsc3)N(Cc3ccc4c(c3)OCO4)C=C2C1=O (stereo not drawn) | -79.6
Cc1c(C(c2ccc(O)cc2)c2c(C)n(C)n(-c3ccccc3)c2=O)c(=O)n(-c2ccccc2)n1C | -7.93
CCOC(=O)N1CCc2c(sc(NC(=O)CN3CCOCC3)c2C#N)C1 | -1.09
CC(C)(C)NC(=O)c1ccc(Sc2ccccc2)c([N+](=O)[O-])c1 | -10.2
O=C(Cc1ccc(-n2cccc2)cc1)NCc1ccccc1Cl | 8.35
O=C(Cn1cnc2c(nnn2Cc2ccc(F)cc2)c1=O)N1CCCc2ccccc21 | 0.368
Cc1ccc(C)c(OCc2ccc(C(=O)Nc3ccc([N+](=O)[O-])cn3)o2)c1 | 16.3
O=C(CCNS(=O)(=O)c1cccc2nsnc12)NCc1ccccc1Cl | -2.94
CN1CCN(C(=O)C2=C[C@H](c3csc4ccccc34)C[C@H](OCCCCO)O2)CC1 | -12.7
Cc1cccc(C(=O)NC(=S)NCc2cccnc2)c1 | -0.89
CCN1CCN(c2nc(Nc3ccc(C)c(C)c3)nc(N)c2[N+](=O)[O-])CC1 | -75
Cc1cccc(C)c1NC(=O)CCCSc1nnc(-c2ccc(Cl)cc2)n1-c1ccccc1 | -3.49
CC(C)CCn1cnc2c(cnn2-c2ccc(F)cc2)c1=O | -3.95
COc1cccc(-c2nnc3sc(-c4ccc(C)cc4)nn23)c1 | -10.2
Cc1cc(NC(=O)c2cccc(S(=O)(=O)N3CCCCCC3)c2)n(-c2ccccn2)n1 | 13.4
Cc1nn(-c2ccccc2)c(C)c1C(=O)NCc1ccc(F)cc1 | -53.2
CCn1cc(C(=O)NCC(=O)NC(C)(C)CO)c(=O)c2cc3c(cc21)OCO3 | 11.9

Compound | hERG current change (%, negative = inhibition) at 10uM [%]
CCCCNC(=S)N=Nc1c(O)[nH]c2ccccc12 | 4.13
Cl.c1ccc(CN2CCOCC2)cc1 | 22
O=C(Nc1ccccc1N1CCOCC1)C1=NN(c2c(F)c(F)cc(F)c2F)C(=O)CC1 | 15.5
O=C(CNc1ccc2ccccc2c1)N/N=C/c1ccc(OC(=O)/C=C/c2ccco2)cc1 | 22.7
O=C(CN1CCN(Cc2ccccc2)CC1)Nc1ccc(-n2cnnn2)cc1 | -48
CN1CCN(C2CC(=O)N(Cc3ccc(N4CCCC4=O)cc3)C2=O)CC1 (stereo not drawn) | 6.9
C[C@H](NC(=O)c1ccc(Cl)c(S(=O)(=O)N2CCOCC2)c1)c1nc2ccccc2[nH]1 | -9.68
CC(=O)N1CCC2(CC1)C/C(=N\NC(=S)Nc1ccc(C)cc1)c1cc(O)ccc1O2 | -70.8
O=C(c1cc(N2C(=O)C3C4CCC(C4)C3C2=O)ccc1Cl)N1CCCCCC1 (stereo not drawn) | 3.82
O=C(CSc1nnc(-c2ccccc2)n1Cc1ccccc1)NNC(=O)c1ccccc1O | 16.1
Cc1cc(C)c2nc(NC(=O)C3CC(=O)N(Cc4ccco4)C3)sc2c1 (stereo not drawn) | -40.4
Cc1c(NC(=O)C(C)Sc2nccn2C)c(=O)n(-c2ccccc2)n1C (stereo not drawn) | 12.4
CCOC(=O)c1ccc2[nH]c3ccccc3c2c1 | 15
CCOc1cc(CNC(CC)CO)ccc1OCC(=O)Nc1cccc(C(F)(F)F)c1 (stereo not drawn) | -68.3
CCOC(=O)NCc1ccc2c(c1)OCO2 | 19.7
C=CCSc1nnc(-c2ccccc2N=Cc2c(C)[nH]n(-c3ccccc3)c2=O)c(=O)[nH]1 | -26.5
CCN(C(=O)c1ccc2c(Cl)c3c(nc2c1)CCC3)c1ccc(C)c(C)c1 | 2.59
CCCn1c(SCC(=O)c2ccc3c(c2)OCCO3)n[nH]c1=O | 22.6
S=C(c1ccc(-c2cc(Cl)ccc2Cl)o1)N1CCCCC1 | 5.57
CCC(=O)NCc1ccc2[nH]c(C)cc2c1 | 37
COCCNC(=O)c1ccccc1NC(=O)c1ccccc1N(C)S(=O)(=O)c1ccccc1 | -3.05
